Test results: the RNAGym collection of RNA variant scans (doi:10.7554/elife.90254)
Read counts are not given, so values of variants with three or more changes are uncertain.

B1: OR4K15 (parent)
chain: GUUAACGGUCAUAGGCCAUGGAAACUAGGAGCACCAUUUCGCUGCCAGUGAAGAAAUGAACAAAGAAAAUCUGGGCCAGGCAGGCAUCAAAAGAAAUAGUCUUGCGCUCAACCAGAAAGUCUGUAAUCAUUUUAAGGGUA

Variants of: B1
Assay: self-cleavage, relative activity (ratio to wild type); higher = more cleavage; in vitro, sequencing; the parent is a self-cleaving ribozyme
With U72C A90G A91G the self-cleavage was 0.16.
Variant A11G A30U A68G A91G A92G U124C has a self-cleavage of 0.43.
With A22G A24G A47U U57C A67U A82U the self-cleavage was 0.21.
Work on A23G A110U A118U yielded a self-cleavage of 0.43.
Variant A22G U49C A62G has a self-cleavage of 0.53.
U26C A91U A129G showed a self-cleavage of 1.16.
In the case of A52G A111G U124C, the self-cleavage is reported as 0.03.
Work on U3C A11G A36U A62G A90G yielded a self-cleavage of 0.18.
For G7U G20A A22G A62U, the self-cleavage was 1.41.
Variant A22G A36U A89G has a self-cleavage of 1.28.
Variant G28U A92G U100C A111G A117G A126C has a self-cleavage of 0.01.
G79A U87A A117G gave a self-cleavage of 0.11.
In the case of A30G C34U U57C U108A A116G A117G, the self-cleavage is reported as 0.01.
For U3C A23G A94G, the self-cleavage was 2.37.
A22G A59G U132C showed a self-cleavage of 0.92.
In the case of U108C A114U U130C, the self-cleavage is reported as 0.01.
U26C A110G U122C U132A showed a self-cleavage of 0.06.
Variant A11G U87C A111G has a self-cleavage of 0.04.
Variant A13U A60G C109G has a self-cleavage of 0.07.
A59G A86G A125U gave a self-cleavage of 0.62.
A11U A89G A92U showed a self-cleavage of 0.84.
Variant A30U A56G A96G has a self-cleavage of 1.14.
U9C C32A A118G showed a self-cleavage of 0.15.
Work on A5G U102C U127C yielded a self-cleavage of 0.47.
Work on U2C U19A U130C yielded a self-cleavage of 1.28.
Variant A27G A54G U72A G83A has a self-cleavage of 0.15.
Variant U43G U122A U130C A140U has a self-cleavage of 1.46.
U43C A68G A94U showed a self-cleavage of 2.91.
For U26C G41A A68G, the self-cleavage was 2.03.
With A59G A66C U120C the self-cleavage was 0.7.
Work on A33G A52G A63G yielded a self-cleavage of 1.1.
With U49C U70C A117G the self-cleavage was 0.57.
U3C U38C A47G A134G showed a self-cleavage of 0.79.
In the case of A11G U43A A94G U102C U124C, the self-cleavage is reported as 1.86.
A23G A51G A64G C77U gave a self-cleavage of 1.3.
U3A A5C A64G U87C A117G U130C gave a self-cleavage of 1.13.
Variant A11G A54G U108C A114U has a self-cleavage of 0.
In the case of A68G U87C A117G, the self-cleavage is reported as 1.62.
Work on A51G A54G A126G yielded a self-cleavage of 0.73.
G20U A51G A82C A89U showed a self-cleavage of 0.28.
A67U A68G G75A U127A gave a self-cleavage of 0.08.
U19G A62G A90G gave a self-cleavage of 1.53.
A55G A91G A116U gave a self-cleavage of 0.13.
A22G A55G A59U A118U U132C gave a self-cleavage of 0.3.
Variant A33G A52G U120C has a self-cleavage of 0.25.
U19C U43A A55G G58A A59G U100A gave a self-cleavage of 0.36.
In the case of A78U A86U A129G, the self-cleavage is reported as 0.11.
With A5G A24G A30U U72C the self-cleavage was 0.38.
A18U U43A A92G A114U A116G A129G gave a self-cleavage of 0.
With A5G U19C U70C the self-cleavage was 1.33.
Variant A24G A60G A116G has a self-cleavage of 1.16.
A30G A86G U103C showed a self-cleavage of 0.85.
For A36G A51G A82G U108C, the self-cleavage was 0.05.
U49C A92G U132C showed a self-cleavage of 0.89.
In the case of A22G U26A A51U A98U U122C, the self-cleavage is reported as 1.09.
With A13G U43A A62G U102A C112U U132A the self-cleavage was 0.07.
With A27G U57C A62G the self-cleavage was 1.47.
A24C A30U A51G showed a self-cleavage of 0.42.
In the case of A22G U37C A47U A68G, the self-cleavage is reported as 1.38.
For C10U A11U A67G, the self-cleavage was 0.59.
For G8A U57G A64U A66U U133C, the self-cleavage was 1.03.
A56G A114G G138U gave a self-cleavage of 0.22.
U9C A116U U124C showed a self-cleavage of 0.17.
Work on G7A A64G A90G yielded a self-cleavage of 0.63.
In the case of A90G U103C U122C, the self-cleavage is reported as 0.23.
For A64G A68G G136A, the self-cleavage was 1.74.
Variant A13G A86G A90G has a self-cleavage of 1.52.
A56G A82G U87C U131A gave a self-cleavage of 0.54.
A33U A55G A89G showed a self-cleavage of 1.27.
In the case of C34U A91G A116G U122A A125G U132A, the self-cleavage is reported as 0.18.
In the case of A30G U108C U127C, the self-cleavage is reported as 0.
U9C A114G U139C gave a self-cleavage of 0.41.
With U2C A24G U26C A95G the self-cleavage was 0.44.
Variant U43A C85U U103C U124A U130C has a self-cleavage of 0.05.
In the case of A47G U70A U127A, the self-cleavage is reported as 0.75.
U12C G48A A59C showed a self-cleavage of 1.38.
For A4G A23G U38A A51U U127A, the self-cleavage was 2.44.
Work on U2A A13G A24G A59U U87C yielded a self-cleavage of 0.57.
U39C A92G A129G U132C gave a self-cleavage of 0.88.
Variant A5U U39C A98U U133C A140G has a self-cleavage of 2.35.
C10U A30U A52G U57G U102A U133C gave a self-cleavage of 0.8.
In the case of U19C A27G A52G A91G U108A, the self-cleavage is reported as 0.
A22G A23G A24U U38C C76U A94G showed a self-cleavage of 0.09.
A5G U38C G58A A94G A98G gave a self-cleavage of 0.5.
Variant A11G A33U U87C A96C U108A has a self-cleavage of 0.05.
For U39C A55G U102C, the self-cleavage was 2.45.
A18G A30U G79A gave a self-cleavage of 0.13.
Work on A89G U97A A114C yielded a self-cleavage of 0.
For A55G A68G U130C A135G, the self-cleavage was 1.45.
U3C A22U A33G A111G gave a self-cleavage of 0.08.
A22G U103C U131C showed a self-cleavage of 0.68.
G28A A33G A126U showed a self-cleavage of 0.46.
Work on C61U A64U A82G yielded a self-cleavage of 0.6.
With A30C A36C U38A A94U the self-cleavage was 2.08.
U9C C17U U38C gave a self-cleavage of 1.42.
Work on U38C G75U A111G yielded a self-cleavage of 0.03.
For U37C U43A U122C, the self-cleavage was 1.03.
Variant A33G A52U A67G A90G has a self-cleavage of 0.14.
With U2A U39C A64U A86G A111G the self-cleavage was 0.21.
Variant A33G A90G A114U U120C has a self-cleavage of 0.04.
A18G A78U A86G A94G gave a self-cleavage of 0.28.
For A78G A95U A129G, the self-cleavage was 0.17.
U9A U103C A117G showed a self-cleavage of 1.17.
Variant A55G A69G A78G A82U has a self-cleavage of 0.1.
Variant A66G U131C U139C A140G has a self-cleavage of 2.37.
A22G A59G A60G A117C gave a self-cleavage of 0.15.
A36G A94G A116G gave a self-cleavage of 1.05.
G44A A82U A92G gave a self-cleavage of 0.12.
For U2C C42A U103G, the self-cleavage was 0.01.
A24G A56G A82U A96U A125U showed a self-cleavage of 0.09.
Work on U43C G106U A118G yielded a self-cleavage of 0.
For U3C A55G A62C, the self-cleavage was 0.61.
For A69G A95G U100A U127C, the self-cleavage was 0.27.
A18G A23G U70C gave a self-cleavage of 1.35.
With A23G U37C A116U the self-cleavage was 0.35.
In the case of U43C G48U A67G A96G, the self-cleavage is reported as 1.6.
For G15U U37C A90G, the self-cleavage was 1.26.
A4G A24C A47U U108C gave a self-cleavage of 0.24.
With A23G A59G A62G the self-cleavage was 0.94.
In the case of A60G U120C A134G, the self-cleavage is reported as 0.48.
For A60G A86G A111G, the self-cleavage was 0.02.
A47G G75C A114U gave a self-cleavage of 0.01.
Work on A18U A22U U26A A86G U103C U122C yielded a self-cleavage of 0.76.
Work on U26C U49C A54G A64G A91G U100C yielded a self-cleavage of 2.15.
G80U U102C U127C showed a self-cleavage of 0.13.
In the case of A18G U39C U108C, the self-cleavage is reported as 0.03.
A23G A60G U70A U133C gave a self-cleavage of 1.18.
A22G A54G A55G A117G U130C gave a self-cleavage of 1.44.
For A5G U38C U39C A60G G79U G119A, the self-cleavage was 0.13.
In the case of A52G A86G C109G A126G, the self-cleavage is reported as 0.
Work on A54G A64U U127A yielded a self-cleavage of 1.94.
For A51G A92G U122C, the self-cleavage was 1.16.
In the case of A30G G31C U38A U49A U70C U120A, the self-cleavage is reported as 0.52.
With A24G U57C A92G the self-cleavage was 0.56.
A30G G58A A64G gave a self-cleavage of 0.82.
A18U U19G G50A A54G A68C showed a self-cleavage of 1.31.
U19A A62G A86G showed a self-cleavage of 1.31.
A60U A91G A96G A116G gave a self-cleavage of 0.37.
Work on A55G A94G U120A yielded a self-cleavage of 1.38.
Variant A23U U43C A89C U108C has a self-cleavage of 0.03.
In the case of A23G A51G A54G A90G A91G, the self-cleavage is reported as 1.01.
Variant U43C A62G U70C A92G A95U A110G has a self-cleavage of 0.1.
In the case of A22U A59G A95G, the self-cleavage is reported as 1.29.
Work on U97C A111U A134G yielded a self-cleavage of 0.06.
In the case of U2C A13U A52G A68G A96G, the self-cleavage is reported as 0.49.
Variant A91G U100C U102A has a self-cleavage of 1.53.
U38A G74C A114G gave a self-cleavage of 0.05.
G7A A22G A96C A126C gave a self-cleavage of 0.56.
A125G U130A U139C showed a self-cleavage of 0.51.
For G7A A24G U100C, the self-cleavage was 1.94.
With A13G U37C C88U the self-cleavage was 1.45.
With A78G G79U A90G U120C the self-cleavage was 0.16.
For U19C U38C U57C A114U, the self-cleavage was 0.04.
With U9C A33G A67G the self-cleavage was 0.99.
A23G A51U U57A U127C showed a self-cleavage of 1.09.
Work on U39C A47G U102C U130C U133C yielded a self-cleavage of 2.03.
In the case of U57C U72C A116G, the self-cleavage is reported as 0.11.
Variant U3C A60U A126G has a self-cleavage of 1.11.
Work on A30G U70A A92G yielded a self-cleavage of 0.74.
Variant U2C U38C U70C A91G U103A U122C has a self-cleavage of 0.07.
Variant A47U A56G A63U A116G has a self-cleavage of 0.35.
In the case of A11G A51G A92G U130C, the self-cleavage is reported as 0.63.
For U102C A111G U127C, the self-cleavage was 0.
In the case of G15A U108C U132G, the self-cleavage is reported as 0.
With A5G A33G A68G A94G U124A the self-cleavage was 0.76.
Work on A95G A117U U124C yielded a self-cleavage of 1.31.
Work on G20A U100C A126G yielded a self-cleavage of 1.52.
